Measured values published in the supplement of paper PMC3334620.
In all, about 33,000 sequences were measured (“E-score (-0.5 to 0.5)”: median about -0.013, highest 2% from about 0.3 on). This is one part of the list.

target: T1, Msn1 (UniProt P22148); assay: PBM E-score (8-mer binding enrichment) (E-score (-0.5 to 0.5)); higher = stronger / more preferred TF binding; most listed sequences are background and not binding sites; details: protein concentration: 200 nM; construct: GST-full length
T1 sequence: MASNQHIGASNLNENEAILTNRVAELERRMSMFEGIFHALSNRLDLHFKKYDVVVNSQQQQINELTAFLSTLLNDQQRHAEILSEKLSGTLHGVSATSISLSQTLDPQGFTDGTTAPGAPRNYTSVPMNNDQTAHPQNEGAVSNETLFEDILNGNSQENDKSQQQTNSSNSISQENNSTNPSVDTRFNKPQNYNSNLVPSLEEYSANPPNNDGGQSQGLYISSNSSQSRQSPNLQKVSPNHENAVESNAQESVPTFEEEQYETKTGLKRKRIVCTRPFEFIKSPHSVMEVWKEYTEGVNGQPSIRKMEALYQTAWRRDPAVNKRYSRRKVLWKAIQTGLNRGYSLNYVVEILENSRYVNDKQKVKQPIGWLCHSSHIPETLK
Method in brief: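 Each ungapped eight-base word and its reverse complement, pooled, received an E-score from the Universal PBM Analysis Suite. Underlying scans, normalised with masliner, recorded fluorescent anti-GST bound to GST-tagged yeast transcription factors. These were applied at about 100-200 nM to universal all-10-mer Agilent arrays double-stranded by primer extension.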

Sequence | PBM E-score
CGCCCGGC | -0.155
AGGGCGTG | 0.00236
CCCTCGTA | -0.185
GGAACCGA | -0.00407
CGTGTATC | -0.0252
CCCCCTAC | -0.362
CCAATGAA | -0.114
ATATAGTC | 0.101
ACCACTGA | -0.113
ACACCCGA | 0.189
ATGAAATC | 0.115
GGAGTACC | -0.245
AAGATTCC | 0.0923
GCTGAACC | -0.0307
ACCAAGAT | -0.0621
AGTGAAGG | -0.108
ACCGTATG | -0.0372
CCACCAAA | -0.132
CCCATTAC | -0.158
GGGCCGAC | -0.102
GATACTGA | 0.0464
GCTGCTAC | -0.214
CCATCTAG | -0.156
CGTTTACA | -0.0428
CTTGCTAA | -0.158

Sequence | PBM E-score
ACTCGGCG | 0.165
CCATTCAC | -0.0289
AAAACCCT | -0.0857
CCGGGGCA | -0.2
CCATGGGA | -0.123
AGCCCCAT | -0.153
CTTCCGTC | 0.00904
CATGAGAA | 0.117
CCTGGGTA | -0.231
ACCAACCA | -0.0389
CAGGGACC | -0.273
CGTCGTTC | 0.12
GCTGAGCC | -0.172
AAGAAAGG | -0.0965
AGCTTCAG | -0.165
AGAAAATG | 0.15
CATGCGAG | -0.13
ATCGAAGC | -0.0811
ACAGGGAT | -0.147
CACACCGA | 0.00524
ACATAACT | 0.105
GGTTGACA | 0.0242
CAGGTAAA | 0.141
GTAGACAC | 0.0944
ACCGATGC | -0.136

Sequence | PBM E-score
CAAGAGCG | -0.0817
CCTGGGGA | -0.402
ATGACTAA | -0.0221
GAATGCGC | 0.0658
CGGTGTGA | 0.0978
ATTGCCAA | -0.0368
AGAGCGGC | -0.219
ATATGATC | 0.215
GCCAAAGA | -0.154
GTGAAGCA | -0.145
ACAGGCAA | 0.188
CATAGGGC | -0.182
GACGGGTA | -0.204
CATTCAGG | 0.00579
AATGTGGA | 0.132
ATAGGACC | -0.11
AATATGGT | 0.134
AAACGCCA | 0.165
CTTGTGAA | -0.152
AACGTCAA | 0.162
CGTAGTCC | -0.106
AAGGTGCA | -0.0362
AAGGAAAG | -0.204
CCCTTATA | -0.0141
CTCAAGTC | -0.105

Sequence | PBM E-score
AACGGGGC | -0.154
GATTGATA | 0.0851
AGATTCGA | 0.0206
AAAGACCT | 0.0725
AGTAGCCA | -0.186
ATTTTCTC | -0.0167
CATGCTGC | -0.134
CTGATAGA | 0.0701
TTATTAAA | 0.29
CTCATGCA | 0.0112
GGCATGCC | 0.121
GTCGACTA | 0.147
CTTGCTCC | -0.027
GGTTCTAC | -0.139
CTCTATCC | -0.094
GCTCAAAA | 0.129
AATTCAAG | 0.087
ACTTGGGA | -0.131
ATAAGATG | 0.177
ATACCACC | -0.0113
CATGCTAG | 0.0327
CATATGTC | 0.449
TGCAACAA | 0.00155
GGCTCACC | -0.297
GTATTAGA | 0.183

Sequence | PBM E-score
GCGGAGCC | -0.139
CGGTGGTC | -0.178
ACATTCAT | 0.219
AGCCAGGA | -0.0467
CACTCTAC | 0.0849
ACCAGCAG | -0.229
TCAAACCA | 0.0273
ATCGGGCA | 0.0319
CTAGCGAA | -0.166
AGATGAAA | 0.0281
GGCGAGCC | -0.0805
CGGTAACG | -0.0583
CGGCCTAA | 0.0911
CAGACGCA | -0.157
CATCGATC | 0.0582
GATGGGAA | -0.263
CCCCAACA | -0.258
CCTGAAGG | -0.23
GCACAAAC | 0.0596
CGCCCCGA | -0.116
AGGTTAAG | -0.0722
AGTGCCGC | -0.00434
ACCTACGA | 0.0388
CCAGTCGC | -0.182
CACTGATA | 0.00625

Sequence | PBM E-score
CCTCAGAA | -0.0736
CAGGCCTA | 0.0635
CGTAAGGA | -0.0491
GTGACGTA | 0.0544
AGAGTTCG | 0.068
AGTTCCAG | -0.0913
CCTCTCCC | -0.186
ATCGATGA | 0.148
ATCTCCAG | -0.0877
AAAGCACC | -0.171
CGTATGAG | 0.0013
ATCTGTGA | 0.0317
CGCTTCCC | -0.207
AAAATCTG | 0.182
TAGTAGCA | -0.0287
CCGCGGCA | 0.0871
AGCTTGAG | -0.24
CAACCATG | 0.0589
GTGGCTCA | -0.0852
TAATGCTA | 0.146
ACAGTCCA | 0.00446
CAAGTCAA | -0.149
ACAAGAGG | -0.011
GGTTCCTA | -0.0173
GATGGGCA | 0.00952

Sequence | PBM E-score
GAGTTGCA | 0.0203
CTCGAATA | -0.0344
CCGCACAA | -0.146
ATGCACCG | -0.211
AAAGAATT | 0.147
AATCGTAG | 0.11
CGTCCCAC | 0.0126
ACACGCGC | 0.173
CTAAGGCA | -0.022
AAGGTAGA | -0.136
AGATTTAA | 0.0502
CTGCCCAA | -0.0276
CACAGGTG | -0.148
GTTGACAA | 0.269
ATACGTGC | -0.178
AACTACCC | 0.0205
GTAAGCAC | -0.0979
TACAAGAA | 0.169
CTAGTCAC | -0.0149
CCGGGCTA | -0.267
GAAAGAAA | 0.0913
CAGTGACC | -0.253
CCTGCAAA | -0.188
GCTACTGA | -0.124
GTAGGGTA | 0.101

Sequence | PBM E-score
AACGGTAA | 0.0145
ACTCCCGA | -0.029
GTCCAGAC | 0.0762
AGCTATCA | -0.069
CAGGGTAG | -0.22
AGTCTACG | -0.221
AGCAACAC | -0.0275
GGTCCACC | -0.159
CAGGAAGA | -0.0636
ACGTCTGA | 0.121
ACATAGAG | 0.00923
ACGGACCA | 0.0706
ACAATGCT | -0.0967
CTGACACC | 0.0607
CTCCTATA | -0.254
ATCATATA | 0.0866
CCACAATC | -0.00968
AGTCCGGC | 0.136
GCACTTAC | -0.207
TAAGGACA | 0.481
GAACTGAA | -0.00121
CGTGCCTC | -0.053
CGCTGACA | 0.314
GGCTTGCA | 0.00927
AGCCGAAA | 0.193

Sequence | PBM E-score
CTCCCGTA | -0.207
GTGCTAAC | 0.0216
AATTTACC | 0.056
TGGATTAA | -0.0801
GGTAGAAC | -0.115
GCCCCCAA | -0.243
ACATTGGT | 0.123
GAGGTGGC | -0.233
ACTATAAG | 0.0186
CGACCGCA | -0.0304
AATGACTA | 0.17
AAGATGAT | 0.0352
AGCTGTAG | -0.217
ATGTGGGG | -0.388
CCTAGCAA | -0.0686
TGGTTCAA | 0.0383
CCTCGCTC | -0.00381
ACGTGACT | -0.133
GACACGAC | 0.248
